# In PubChem BioAssay (NCI):
#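 Cultured in 96-well plates, cells were exposed to test compound for 48 hours across five concentrations. Here, GI50 denotes the concentration required for 50% inhibition of growth.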 Some entries of the source have several records that differ or are many. This is not the full list of results. The source may hold further records. For some of these results: A record mostly stands for its own series of concentrations, which the source does not state; some values may only mark the edge of a range. A tag in brackets gives the origin of a value. A, B and so on number the origins entry by entry. For some of these results: Results that share an entry repeat one measurement in other runs, samples, wells, individuals or studies.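 Definition used: TGI = concentration required for complete inhibition of growth.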
# Tests used:
# Assay in all cases: inhibition of tumour cell growth, NCI panel, 48 h
# [1] = tested on: NCI/ADR-RES ovarian
# [2] = tested on: TK-10 renal
# [3] = tested on: MCF7 breast
# [4] = tested on: RPMI-8226 leukemia
# [5] = tested on: HCT-15 colon
# [6] = tested on: OVCAR-3 ovarian
# [7] = tested on: NCI-H23 lung
# [8] = tested on: 786-0 renal
# [9] = tested on: ACHN renal
# [10] = tested on: T-47D breast
# [11] = tested on: MALME-3M melanoma
# [12] = tested on: SK-MEL-28 melanoma
# [13] = tested on: OVCAR-5 ovarian
# [14] = tested on: SF-539 CNS
# [15] = tested on: MDA-MB-231 breast
# [16] = tested on: COLO 205 colon
# [17] = tested on: HCT-116 colon
# [18] = tested on: MOLT-4 leukemia
# [19] = tested on: NCI-H460 lung
# [20] = tested on: UACC-62 melanoma
# [21] = tested on: IGROV1 ovarian
# [22] = tested on: OVCAR-4 ovarian
# [23] = tested on: KM12 colon
# [24] = tested on: HCC-2998 colon
# [25] = tested on: SK-OV-3 ovarian
# [26] = tested on: A549 NSCLC
# [27] = tested on: SK-MEL-5 melanoma
# [28] = tested on: UO-31 renal
# [29] = tested on: U251 CNS
# [30] = tested on: CAKI-1 renal
# [31] = tested on: SNB-19 CNS
# [32] = tested on: HT29 colon
# [33] = tested on: LOX IMVI melanoma
# [34] = tested on: NCI-H522 lung
# [35] = tested on: SF-295 CNS
# [36] = tested on: SN12C renal
# [37] = tested on: SK-MEL-2 melanoma
# [38] = tested on: M14 melanoma
# [39] = tested on: MDA-MB-435
# [40] = tested on: RXF 393 renal
# [41] = tested on: HOP-62 NSCLC
# [42] = tested on: UACC-257 melanoma
# [43] = tested on: EKVX NSCLC
# [44] = tested on: HOP-92 NSCLC
# [45] = tested on: OVCAR-8 ovarian
# [46] = tested on: A498 renal
# [47] = tested on: SR leukemia
# [48] = tested on: DU-145 prostate
compound,measurement,setting,value
O=c1[nH]cc(F)c(=O)[nH]1,TGI,[1],"19.2 µM, 2.32 mM, > 2.5 mM [sample A] and > 100 µM [sample B]"
same,GI50,[2],"14.9 µM [sample A, 1 test] and 2.77 µM [sample A, mean of 5 tests] and > 100 µM [sample B, 1 test]"
same,TGI,[2],"79.3 µM, 1.93 mM, > 2.5 mM [sample A] and > 100 µM [sample B]"
same,GI50,[3],"5.38 µM [sample A, mean of 3 tests] and 203 nM [sample A, mean of 4 tests] and 2.9 µM [sample B, 1 test]"
same,TGI,[3],"53.8 µM, 1.51 mM, 2.45 mM [sample A] and > 100 µM [sample B]"
same,GI50,[4],9.01 µM [mean of 3 tests] and 129 nM [mean of 4 tests]
same,TGI,[4],"55.9 µM, 1.38 mM, > 1.52 mM"
same,GI50,[5],"235 nM, 5.77 µM, 8.53 µM [sample A] and 4.1 µM [sample B]"
same,TGI,[5],"57.3 µM, 2.1 mM, > 1.58 mM [sample A] and > 100 µM [sample B]"
same,GI50,[6],"60.7 µM [sample A, mean of 3 tests] and 55.3 nM [sample A, mean of 5 tests] and 3.54 µM [sample B, 1 test]"
same,TGI,[6],"967 nM, 1.08 mM, 999 µM [sample A] and > 100 µM [sample B]"
same,TGI,[7],"52.2 µM, 2.11 mM, > 2.11 mM [sample A] and > 100 µM [sample B]"
same,TGI,[8],"63 µM, 1.68 mM, > 2.5 mM [sample A] and > 100 µM [sample B]"
same,TGI,[9],"42.8 µM, 1.7 mM [sample A] and > 100 µM [sample B]"
same,TGI,[10],"> 54.8 µM, 2.04 mM, > 2.5 mM [sample A] and > 100 µM [sample B]"
same,GI50,[11],"151 µM [sample A, 1 test] and 298 nM [sample A, mean of 3 tests] and 6.23 µM [sample B, 1 test]"
same,TGI,[11],"> 8.44 µM, 1.79 mM, > 2.5 mM [sample A] and > 100 µM [sample B]"
same,TGI,[12],"72.2 µM, 2.26 mM [sample A] and > 100 µM [sample B]"
same,TGI,[13],"58.8 µM, 1.86 mM, 1.27 mM [sample A] and > 100 µM [sample B]"
same,GI50,[14],"4.88 µM [sample A, mean of 3 tests] and 122 nM [sample A, mean of 5 tests] and 630 nM [sample B, 1 test]"
same,TGI,[14],"> 87.1 µM, 379 µM, 60.5 µM [sample A] and > 100 µM [sample B]"
same,GI50,[15],"1.2 mM [sample A, mean of 3 tests] and 13 µM [sample A, mean of 4 tests] and > 100 µM [sample B, 1 test]"
same,TGI,[15],"> 51 µM, 2.35 mM, > 2.5 mM [sample A] and > 100 µM [sample B]"
same,GI50,[16],"305 nM, 6.83 µM, 8.28 µM [sample A] and 2.01 µM [sample B]"
same,TGI,[16],"> 66.5 µM, 1.11 mM, > 2.5 mM [sample A] and > 100 µM [sample B]"
same,TGI,[17],"8.9 µM, 341 µM, 182 µM [sample A] and > 100 µM [sample B]"
same,TGI,[18],"> 60.6 µM, 1.23 mM, 370 µM [sample A] and > 100 µM [sample B]"
same,GI50,[19],"4.88 µM [sample A, 1 test] and 104 nM [sample A, mean of 5 tests] and 577 nM [sample B, 1 test]"
same,TGI,[19],"60.5 µM, 477 µM, 312 µM [sample A] and > 100 µM [sample B]"
same,TGI,[20],"48.7 µM, 1.12 mM, 788 µM [sample A] and > 100 µM [sample B]"
same,TGI,[21],"> 49.5 µM, 1.19 mM, 707 µM [sample A] and > 100 µM [sample B]"
same,TGI,[22],"> 81.5 µM, 1.79 mM, > 1.86 mM [sample A] and > 100 µM [sample B]"
same,TGI,[23],"45 µM, 1.88 mM, > 2.5 mM [sample A] and > 100 µM [sample B]"
same,GI50,[24],"4.88 µM [sample A, mean of 3 tests] and 121 nM [sample A, mean of 4 tests] and 289 nM [sample B, 1 test]"
same,TGI,[24],"50.7 µM, 1.21 mM, 2.44 mM [sample A] and > 100 µM [sample B]"
same,TGI,[25],"> 73.8 µM, 2.24 mM, > 2.5 mM [sample A] and > 100 µM [sample B]"
same,GI50,[26],"4.88 µM [sample A, mean of 3 tests] and 356 nM [sample A, mean of 5 tests] and 1.69 µM [sample B, 1 test]"
same,TGI,[26],"> 75 µM, 1.88 mM, 924 µM [sample A] and > 100 µM [sample B]"
same,TGI,[27],"45.5 µM, 665 µM, 542 µM [sample A] and > 100 µM [sample B]"
same,TGI,[28],"49 µM, 656 µM, 351 µM [sample A] and > 100 µM [sample B]"
same,TGI,[29],"> 77.4 µM, 2.36 mM, > 2.5 mM [sample A] and > 100 µM [sample B]"
same,GI50,[30],"5.91 µM [sample A, mean of 3 tests] and 233 nM [sample A, mean of 4 tests] and 2.69 µM [sample B, 1 test]"
same,TGI,[30],"5.32 µM, 1.04 mM, > 2.5 mM [sample A] and > 100 µM [sample B]"
same,TGI,[31],"> 82 µM, 2.34 mM, > 2.5 mM [sample A] and > 100 µM [sample B]"
same,GI50,[32],"338 nM, 6.72 µM, 9.82 µM [sample A] and 3.69 µM [sample B]"
same,TGI,[32],"67.7 µM, 2.25 mM, > 2.5 mM [sample A] and > 100 µM [sample B]"
same,TGI,[33],"> 56.5 µM, 970 µM, 969 µM [sample A] and > 100 µM [sample B]"
same,TGI,[34],"> 74.6 µM, 1.4 mM, 2.17 mM [sample A] and > 100 µM [sample B]"
same,TGI,[35],"9.27 µM, 2.24 mM, > 2.5 mM [sample A] and > 100 µM [sample B]"
same,TGI,[36],"> 34.4 µM, 2.18 mM, > 2.5 mM [sample A] and > 100 µM [sample B]"
same,GI50,[37],"> 952 µM [sample A, mean of 2 tests] and > 65.3 µM [sample A, mean of 4 tests] and 26.6 µM [sample B, 1 test]"
same,TGI,[38],"> 94.2 µM, 2.36 mM, > 2.5 mM [sample A] and > 100 µM [sample B]"
same,GI50,[39],"175 nM [sample A, mean of 5 tests] and 2.26 µM [sample B, 1 test]"
same,TGI,[39],"> 79.6 µM, 2.37 mM, > 2.5 mM [sample A] and > 100 µM [sample B]"
same,TGI,[40],"37.3 µM, 817 µM, 688 µM [sample A] and > 100 µM [sample B]"
same,TGI,[41],"> 92.1 µM, 1.89 mM, > 2.41 mM [sample A] and > 100 µM [sample B]"
same,TGI,[42],"> 86.6 µM, 2.08 mM, > 2.5 mM [sample A] and > 100 µM [sample B]"
same,GI50,[43],"1.6 mM [sample A, mean of 3 tests] and 47.3 µM [sample A, mean of 5 tests] and > 100 µM [sample B, 1 test]"
same,GI50,[44],"8.9 µM [sample A, 1 test] and > 82.9 µM [sample A, mean of 4 tests] and > 100 µM [sample B, 1 test]"
same,TGI,[45],"> 43.6 µM, 2.37 mM, > 2.5 mM [sample A] and > 100 µM [sample B]"
same,TGI,[46],"691 µM, 9.23 µM [sample A] and > 100 µM [sample B]"
COc1ccc(-c2c(C(C)=O)c(-c3ccccc3)n(C3OC(COC(C)=O)C(OC(C)=O)C(OC(C)=O)C3OC(C)=O)c(=S)c2C#N)cc1O (stereo not given),GI50,[47],"152 nM [sample A, 1 test] and 85.5 µM [sample B, 1 test]"
CO[C@@]12[C@H](COC(N)=O)C3=C(C(=O)C(C)=C(N)C3=O)N1C[C@@H]1N[C@@H]12,TGI,[2],"19.9 µM, 812 nM, 28.1 µM"
same,TGI,[10],> 100 µM [1 test] and 2.89 µM [mean of 2 tests] and 21 µM [mean of 29 tests]
same,TGI,[48],"7.19 µM, 757 nM, 15.5 µM"
same,TGI,[18],"9.27 µM, 2.65 µM, > 100 µM"
same,TGI,[23],"9.51 µM, 10.9 µM, > 100 µM"
same,TGI,[47],6.34 µM and > 100 µM
same,TGI,[41],"1.77 µM, 9.88 µM, 69.3 µM"
same,TGI,[45],"9.21 µM, 11.7 µM, > 100 µM"
